Reference: PubChem BioAssay AID485364 (National Center for Advancing Translational Sciences (NCATS), 2010)
Screen size: about 360,000 compounds; about 11,000 (3.1%) were called active. This list was built around the results that the source calls inconclusive (neither active nor inactive); the mix of calls is not that of the screen. Calls come from the whole dose curve; as a rule, active = well fitted inhibition curve with a large enough effect; inconclusive = small, poorly fitted or top-dose-only effect; inactive = no such curve, though single readings can be large or run the other way. No potency is given beside an inconclusive call; the fits are too rough.

Molecular target: Schistosoma mansoni thioredoxin glutathione reductase (TGR) (UniProt Q962Y6)
Assay: qHTS Assay for the Inhibitors of Schistosoma Mansoni Peroxiredoxins; note: nearly all actives have a fitted effect of over 60% in size
Settings: purified TGR, DTNB reduction, TNB absorbance 405 nm; activity change, negative = inhibition: at 114 µM (top of the series)
Method in brief: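 TGR 20 nM + NADPH 100 uM (dispensed conc.), cpd preinc 15 min RT; start with NADPH (500 uM addition) then DTNB (15 mM addition). Kinetic TNB absorbance, 405 nm filter. Four-parameter Hill fit across titration.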
% is set by controls: 0 for no effect and ±100 for the full control effect; potency is the fitted concentration of half-maximal effect; tags give direction and shape of the fitted curve.

| SMILES | activity change, negative = inhibition | Potency |
| --- | --- | --- |
| COc1ccc(NC(=O)COc2ccccc2C#N)c(S(=O)(=O)N2CCCCC2)c1 | inactive: 7.15% [at 11.4 µM] |  |
| COc1ccc(Cl)cc1S(=O)(=O)N1CCC(c2ccncc2)CC1 |  | inactive |
| CC(=O)N1c2ccccc2CC1C(=O)N1CCN(c2cc(Cl)ccc2C)CC1 (centres undefined) |  | inconclusive [inhibitor, single point] |
| CC(=O)Oc1ccc(C(=O)[C@H]2[C@H]3C(=O)N(c4cccc5ccccc45)C(=O)[C@H]3[C@@H]3C=CC=NN32)cc1 |  | inconclusive [inhibitor, partial curve] |
| COc1ccc(CC(=O)OC(C)CN2CCOCC2)cc1 (centres undefined) |  | inconclusive [inhibitor, partial curve] |
| Cc1ccc(Cn2ccsc2=NC(=O)CCl)cc1 |  | active: 14.1 µM |
| CCOC(=O)C1=C(CSc2nc(-c3ccncc3)ccc2C#N)OC(N)=C(C#N)C1c1cccnc1 (centres undefined) |  | inconclusive [inhibitor, partial curve] |
| CC(/C=C/c1ccco1)=N/NC(=O)CNc1ccccc1C |  | active: 35.5 µM |
| CCOC(=O)C(=CNc1cccc(C)n1)C(=O)OCC |  | inactive |
| O=C(Nc1ccc(Nc2ccncc2)cc1)c1ccc(Nc2ccnc3ccc([N+](=O)[O-])cc23)cc1[N+](=O)[O-] |  | inconclusive [inhibitor, partial curve] |
| COc1ccc(CNCc2c(F)cccc2F)cc1OC |  | inconclusive [inhibitor, partial curve] |
| Cc1ccc(-c2nc3scc(CCNS(=O)(=O)c4ccc(Oc5ccccc5)cc4)n3n2)cc1 |  | inactive |
| C/C=C(/C)C(=O)OC1Cc2c(ccc3ccc(=O)oc23)OC1(C)C (centres undefined) |  | inconclusive [inhibitor, single point] |
| O=C1Nc2ccccc2C(O)(C(=O)NCc2ccco2)N1c1ccccc1 (centres undefined) |  | inconclusive [inhibitor, partial curve] |
| O=[N+]([O-])c1cccc(S(=O)(=O)c2ccc(NCCO)c([N+](=O)[O-])c2)c1 |  | inconclusive [inhibitor, partial curve] |
| O=C(CC1C(=O)NCCN1Cc1ccoc1)NCCc1ccc(Cl)cc1 (centres undefined) |  | inconclusive [inhibitor, full curve, poor fit] |
| COc1ccc(N2CCN(CCCNC(=O)C(=O)c3c(C)n(C)c4ccccc34)CC2)cc1 |  | inconclusive [inhibitor, partial curve, poor fit] |
| CC(=O)N1CCN(C(=O)CC2OC(=O)c3ccccc32)CC1 (centres undefined) |  | inconclusive [inhibitor, full curve, poor fit] |
| Oc1c(CN2CCCCC2)cc(COCc2ccccc2)c2cccnc12 |  | active: 35.5 µM |
| CC1CN(C2CCN(S(=O)(=O)c3ccc(F)cc3)CC2)CC(C)O1 (centres undefined) |  | active: 39.8 µM |
| C=CCn1c(SCc2nc3ccccc3nc2C)nnc1-c1ccoc1C |  | active: 44.7 µM |
| Cc1nc2cc(NC(=O)C3COc4ccccc4O3)ccc2s1 (centres undefined) |  | inactive |
| CCc1ccc(S(=O)(=O)NC(=S)NC2CCCCC2)cc1 |  | active: 12.6 µM |

| SMILES | activity change, negative = inhibition | Potency |
| --- | --- | --- |
| Cc1ccc(CNc2cc(C(=O)O)ccc2C)s1 |  | inconclusive [inhibitor, partial curve] |
| CC(OC(=O)CCc1ccccc1)C(=O)Nc1ncc(Cl)cc1Cl (centres undefined) |  | inactive |
| CC(OC(=O)/C=C/c1ccco1)C(=O)Nc1cccc([N+](=O)[O-])c1 (centres undefined) |  | inconclusive [inhibitor, partial curve] |
| O=C(C1=C[C@@H](c2csc3ccccc23)C[C@@H](OCc2ccc(CO)cc2)O1)N1CCN(Cc2ccccc2)CC1 |  | active: 35.5 µM |
| CC(C(=O)NCC(=O)Nc1ccc(F)c(F)c1F)N1CCN(c2ccc(O)cc2)CC1 (centres undefined) |  | inconclusive [inhibitor, partial curve] |
| COc1ccc(CNC(=O)CCS(=O)(=O)c2cc(Br)cc3c2N(C(=O)C2CC2)CC3)cc1 |  | inconclusive [inhibitor, full curve] |
| COc1ccc(-c2nnc3ccc(SCC(=O)NCc4ccco4)nn23)cc1 |  | active: 39.8 µM |
| Cc1ccc(-n2cc3c(=O)n(C)c(=O)n(C)c3c2)cc1C |  | inconclusive [inhibitor, full curve] |
| CCOCCCNC(=S)Nc1ccc2nc3n(c(=O)c2c1)CCCCC3 |  | inconclusive [inhibitor, partial curve] |
| O=C(O)CCc1nn2cc(-c3ccccc3)nc2[nH]c1=O |  | inactive |
| COc1cccc(CN2CCNC(=O)C2CC(=O)NC2CCCCCCC2)c1 (centres undefined) |  | inconclusive [inhibitor, partial curve] |
| COc1ccc2c(C)nc(Nc3nc(C)cc(C)n3)nc2c1 |  | active: 11.2 µM |
| CCN1CCN(Cc2ccc(NC(=O)c3cc(NC(=O)c4cncc(-c5cccs5)c4)cc(OC)c3)cc2C(F)(F)F)CC1 |  | inactive |
| CCCCOc1ccc(C(=O)Nn2cnnc2)cc1 |  | inconclusive [inhibitor, partial curve] |
| CC(=O)c1cccc(NC(=O)C(=O)Nc2cccc3ccccc23)c1 |  | inactive |
| NC(=O)CSc1nc2scc(-c3ccco3)c2c(=O)n1-c1ccccc1 |  | inconclusive [inhibitor, full curve, poor fit] |
| Cc1ccc(-c2nn3c(-c4ccco4)nnc3c3ccccc23)cc1S(=O)(=O)NCC1CCCO1 (centres undefined) |  | inconclusive [inhibitor, full curve, poor fit] |
| CCn1c(CNc2nc(-c3ccccc3)cs2)nnc1SCC(=O)NCc1ccco1 |  | inconclusive [inhibitor, partial curve] |
| Cc1onc(NC(=O)NC(=O)c2ccccc2F)c1Br |  | inactive |
| COc1ccc(S(=O)(=O)NCCc2sc(-c3ccccc3)nc2C)cc1OC |  | inactive |
| Cc1ccc(S(=O)(=O)N(CC(=O)NCc2ccco2)Cc2ccc(F)cc2)cc1 |  | active: 39.8 µM |
| C(=N\Nc1cc(N2CCCCC2)ncn1)/c1ccco1 |  | inactive |
| Cc1ccc(Cl)c(OC(=O)Cn2cnc3c2c(=O)n(C)c(=O)n3C)c1 |  | inconclusive [inhibitor, partial curve] |

| SMILES | activity change, negative = inhibition | Potency |
| --- | --- | --- |
| O=C(O)CCc1ccc(-c2ccc(F)cc2)n1CC1CCCO1 (centres undefined) |  | inconclusive [inhibitor, single point] |
| O=C(CC1(O)C(=O)N(Cc2ccccc2)c2ccccc21)c1ccncc1 (centres undefined) |  | inconclusive [inhibitor, single point] |
| Cc1cc(C)n2cc(CSc3ccc(Br)cc3)nc2n1 |  | inconclusive [inhibitor, partial curve] |
| CC1=C(C(=O)O)N2C(=O)C(NC(=O)c3ccc(F)cc3)C2SC1 (centres undefined) |  | inconclusive [inhibitor, partial curve, poor fit] |
| O=C(CSc1ccsc1[N+](=O)[O-])NCc1ccccc1 |  | inconclusive [inhibitor, partial curve] |
| COC/C=C/C1=CC2=CC(=O)C(C)(OC(=O)c3cnc4ccccc4n3)C(=O)C2=CN1Cc1ccccc1 (centres undefined) |  | inconclusive [inhibitor, partial curve] |
| NS(=O)(=O)c1ccc(CCNC(=O)c2ccc([N+](=O)[O-])s2)cc1 |  | inconclusive [inhibitor, partial curve] |
| CCOC(=O)NNC(=O)c1ccc(Cl)cc1 |  | inactive |
| Cc1cccc(NS(=O)(=O)c2cccc(C(=O)NCC(c3ccco3)N(C)C)c2)c1 (centres undefined) |  | inconclusive [inhibitor, partial curve] |
| COc1ccc(C2c3cccn3CCN2S(=O)(=O)c2ccc([N+](=O)[O-])cc2)cc1 (centres undefined) |  | inconclusive [inhibitor, partial curve] |
| O=C1c2ccc(Cl)cc2S(=O)(=O)c2cccc(C(=O)N3CCN(c4ccc(Cl)cn4)CC3)c21 |  | inconclusive [inhibitor, partial curve] |
| COC(=O)c1ccccc1OCC(=O)N1CCN(c2ccc(F)cc2)CC1 |  | inactive |
| CCCCn1c(=NC(=O)c2ccco2)c(C(=O)OCC)cc2c(=O)n3cccc(C)c3nc21 |  | inactive |
| CCc1cccc(NC(=O)C2CCN(S(=O)(=O)c3cccc(-c4noc(C)n4)c3)CC2)c1 |  | inactive |
| CC(C)(C)NC(=O)CSc1nncn1NCc1cccc2ccccc12 |  | inconclusive [inhibitor, full curve, poor fit] |
| COCCN1CCN(Cc2ccc(C(=O)NC(C)C)cc2)C(=O)C1=O |  | inactive |
| COc1cccc(NC(=O)CN(C)CC(=O)c2c(C)[nH]c3ccccc23)c1 |  | active: 17.8 µM |
| CCCNC(=S)NNC(=O)c1cc(-c2cccnc2)nc2ccccc12 |  | inconclusive [inhibitor, single point] |
| CCCCn1c(SCC(=O)NCc2ccc(C)cc2)nc2c(sc3ccccc32)c1=O |  | inconclusive [inhibitor, single point] |
| CCOc1ccc(N(C(C)C(=O)NCc2ccco2)S(C)(=O)=O)cc1 (centres undefined) |  | active: 44.7 µM |
| CC(C)[C@H]1C=C(C(=O)O)O[C@@H](OCCCCO)C1 |  | inconclusive [inhibitor, partial curve] |
| CNc1ccccc1C(C)(C)c1cc(-c2ccco2)n[nH]1 |  | inconclusive [inhibitor, full curve] |
| O=C(OCC(=O)N1CCCc2ccccc21)c1cccc(S(=O)(=O)N2CCOCC2)c1 |  | inconclusive [inhibitor, partial curve] |
